In test [1] the target is T1, HA-tagged mutant CDC6 (dl 93–100) (HEK-293T) (human) (UniProt Q99741).
T1 sequence: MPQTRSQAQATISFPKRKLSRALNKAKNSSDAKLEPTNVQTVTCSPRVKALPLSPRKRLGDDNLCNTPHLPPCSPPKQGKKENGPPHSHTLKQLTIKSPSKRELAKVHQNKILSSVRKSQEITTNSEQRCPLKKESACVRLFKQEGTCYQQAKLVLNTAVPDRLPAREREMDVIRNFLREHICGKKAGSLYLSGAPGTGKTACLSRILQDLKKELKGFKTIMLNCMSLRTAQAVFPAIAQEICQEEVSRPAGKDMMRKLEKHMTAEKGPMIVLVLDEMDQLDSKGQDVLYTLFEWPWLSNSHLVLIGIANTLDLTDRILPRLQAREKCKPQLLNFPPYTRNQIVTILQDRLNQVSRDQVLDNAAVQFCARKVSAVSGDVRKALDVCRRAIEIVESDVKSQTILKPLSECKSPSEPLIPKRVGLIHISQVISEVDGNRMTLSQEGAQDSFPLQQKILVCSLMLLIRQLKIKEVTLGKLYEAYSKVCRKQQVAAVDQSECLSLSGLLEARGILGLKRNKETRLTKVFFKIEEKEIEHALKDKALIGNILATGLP
The experiment in a line: co-IP; CDC6 WT and dl93–100 with CDH1 (Supplementary Fig. 1c); cells, bait and resin not shown.

Chains of the proteins cited; added tags and fusions are not shown.
UniProt Q9UM11: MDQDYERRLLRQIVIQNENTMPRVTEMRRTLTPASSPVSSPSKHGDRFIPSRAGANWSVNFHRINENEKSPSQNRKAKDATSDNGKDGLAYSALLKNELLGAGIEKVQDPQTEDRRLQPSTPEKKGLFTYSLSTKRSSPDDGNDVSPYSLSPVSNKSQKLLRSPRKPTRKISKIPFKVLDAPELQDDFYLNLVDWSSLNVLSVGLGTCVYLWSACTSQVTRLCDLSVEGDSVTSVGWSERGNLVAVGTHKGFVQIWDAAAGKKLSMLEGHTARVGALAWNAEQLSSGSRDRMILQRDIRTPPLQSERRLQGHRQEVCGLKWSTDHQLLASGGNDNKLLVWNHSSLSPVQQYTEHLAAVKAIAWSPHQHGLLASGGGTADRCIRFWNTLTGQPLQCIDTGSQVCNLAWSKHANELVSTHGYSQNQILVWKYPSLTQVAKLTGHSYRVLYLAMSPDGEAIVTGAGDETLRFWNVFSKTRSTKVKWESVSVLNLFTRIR

Test [2] concerns the target T2, HA-tagged wild-type CDC6 (HEK-293T) (human) (UniProt Q99741).
T2 sequence: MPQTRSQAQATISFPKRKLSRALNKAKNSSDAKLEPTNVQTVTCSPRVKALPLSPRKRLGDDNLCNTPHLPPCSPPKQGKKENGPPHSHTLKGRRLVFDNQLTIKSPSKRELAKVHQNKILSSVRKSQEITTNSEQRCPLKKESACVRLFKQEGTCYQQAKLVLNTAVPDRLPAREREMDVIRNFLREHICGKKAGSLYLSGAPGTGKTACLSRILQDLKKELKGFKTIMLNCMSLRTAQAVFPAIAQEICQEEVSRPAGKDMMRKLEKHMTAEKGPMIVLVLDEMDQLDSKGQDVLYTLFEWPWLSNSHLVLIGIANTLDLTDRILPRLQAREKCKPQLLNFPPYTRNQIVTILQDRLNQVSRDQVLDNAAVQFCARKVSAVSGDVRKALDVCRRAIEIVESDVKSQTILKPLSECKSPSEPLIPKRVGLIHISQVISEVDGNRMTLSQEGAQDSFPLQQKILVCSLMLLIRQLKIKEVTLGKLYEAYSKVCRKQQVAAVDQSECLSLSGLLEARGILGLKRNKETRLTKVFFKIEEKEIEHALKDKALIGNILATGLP
The description is as above.

The target in test [3] is T3, GST-CDC6 1–362 WT (human) (UniProt Q99741).
T3 sequence: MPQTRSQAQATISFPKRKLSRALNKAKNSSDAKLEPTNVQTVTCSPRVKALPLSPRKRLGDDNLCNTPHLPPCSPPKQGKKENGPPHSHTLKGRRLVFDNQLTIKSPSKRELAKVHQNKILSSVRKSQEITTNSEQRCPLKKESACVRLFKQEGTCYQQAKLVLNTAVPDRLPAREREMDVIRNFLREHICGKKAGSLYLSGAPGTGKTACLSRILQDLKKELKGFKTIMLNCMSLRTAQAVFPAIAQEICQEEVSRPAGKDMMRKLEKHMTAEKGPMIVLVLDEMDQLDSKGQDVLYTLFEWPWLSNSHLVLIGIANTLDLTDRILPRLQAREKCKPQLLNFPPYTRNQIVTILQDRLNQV
The experiment in a line: pull-down; GST-CDC6 1–362 (WT or dl93–100) on glutathione-sepharose beads; in vitro translated 35S-labelled Cyclin F (WT or MR/AA) bound for 2 h at 20 °C in 20 mM Tris pH 8, 200 mM NaCl, 0.5% NP40; autoradiography; only the target purified.

Test [4] deals with T1, HA-tagged mutant CDC6 (dl 93–100) (HEK-293T) (human). As to the kind of experiment: co-IP; HEK-293T cells transfected with HA-tagged CDC6 WT or dl 93–100; whole-cell extracts precipitated with anti-HA resin; immunoblot for Cyclin F.
Test [5] deals with T2, HA-tagged wild-type CDC6 (HEK-293T) (human). The test is described as above.
Test [6] addresses T4, Cyclin F (endogenous, U2OS cells) (human (endogenous in U2OS)) (UniProt P41002).
T4 sequence: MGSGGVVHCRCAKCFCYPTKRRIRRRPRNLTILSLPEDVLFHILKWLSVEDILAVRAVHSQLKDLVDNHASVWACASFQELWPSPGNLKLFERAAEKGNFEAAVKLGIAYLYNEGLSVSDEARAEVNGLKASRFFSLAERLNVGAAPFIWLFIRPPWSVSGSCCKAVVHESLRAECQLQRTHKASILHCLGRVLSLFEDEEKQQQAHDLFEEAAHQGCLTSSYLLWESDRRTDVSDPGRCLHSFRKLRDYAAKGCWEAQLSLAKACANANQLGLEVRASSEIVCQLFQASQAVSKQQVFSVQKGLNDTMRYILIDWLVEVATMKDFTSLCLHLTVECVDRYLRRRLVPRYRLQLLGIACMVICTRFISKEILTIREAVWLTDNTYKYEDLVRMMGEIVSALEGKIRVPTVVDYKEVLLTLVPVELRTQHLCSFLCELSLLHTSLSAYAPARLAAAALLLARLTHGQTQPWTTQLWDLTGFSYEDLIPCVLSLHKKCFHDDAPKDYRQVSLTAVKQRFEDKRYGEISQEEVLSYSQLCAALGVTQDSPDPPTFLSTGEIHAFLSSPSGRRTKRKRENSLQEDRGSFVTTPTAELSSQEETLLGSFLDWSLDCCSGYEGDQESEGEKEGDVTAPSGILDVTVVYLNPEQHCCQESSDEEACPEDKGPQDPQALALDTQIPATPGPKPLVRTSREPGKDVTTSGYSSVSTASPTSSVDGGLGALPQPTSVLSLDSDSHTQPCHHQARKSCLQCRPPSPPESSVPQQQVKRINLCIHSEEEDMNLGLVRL
As to the kind of experiment: co-IP; U2OS whole-cell extracts, asynchronous or released from a double-thymidine block; anti-Cyclin F antibody coupled to protein A beads; 50 mM HEPES pH 7.5, 150 mM NaCl, 1 mM EDTA, 2.5 mM EGTA, 10% glycerol, 0.1% Tween; 2 h at 4 °C; immunoblot.

Test [7] has as its target T5, FLAG-tagged wild-type Cyclin F (UniProt P41002).
T5 sequence: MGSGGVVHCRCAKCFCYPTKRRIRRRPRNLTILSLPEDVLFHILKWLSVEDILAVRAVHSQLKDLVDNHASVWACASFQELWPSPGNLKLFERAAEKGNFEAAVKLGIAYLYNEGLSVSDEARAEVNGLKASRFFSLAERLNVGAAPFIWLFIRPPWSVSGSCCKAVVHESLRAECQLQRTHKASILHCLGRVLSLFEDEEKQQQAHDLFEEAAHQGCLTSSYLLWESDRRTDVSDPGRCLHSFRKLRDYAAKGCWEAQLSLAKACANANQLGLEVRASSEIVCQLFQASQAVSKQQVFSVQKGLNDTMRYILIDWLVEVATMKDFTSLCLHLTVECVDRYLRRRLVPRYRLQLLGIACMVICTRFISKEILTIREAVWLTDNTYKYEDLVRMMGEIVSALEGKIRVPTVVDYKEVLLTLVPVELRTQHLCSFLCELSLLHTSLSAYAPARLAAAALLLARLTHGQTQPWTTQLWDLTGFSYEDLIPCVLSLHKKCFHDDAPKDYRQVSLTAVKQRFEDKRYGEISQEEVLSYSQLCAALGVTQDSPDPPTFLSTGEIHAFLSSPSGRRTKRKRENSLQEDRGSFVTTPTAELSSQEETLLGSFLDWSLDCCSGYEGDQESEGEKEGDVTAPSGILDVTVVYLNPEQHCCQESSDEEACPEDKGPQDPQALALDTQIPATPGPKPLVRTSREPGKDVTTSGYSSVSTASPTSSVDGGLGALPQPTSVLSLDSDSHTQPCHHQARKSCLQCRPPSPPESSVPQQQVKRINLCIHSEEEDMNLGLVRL
As to the kind of experiment: co-IP; HEK-293T cells transfected with FLAG-tagged Cyclin F WT or MR/AA; whole-cell extracts precipitated with anti-FLAG resin; immunoblot for endogenous CDC6.

These are yes or no findings as the source states them, for the method shown. Binding seen in cells or lysates may run through a third protein. Some binding calls cover weakened binding; strength is not graded here. For some of these results: Tags and fused reporters may be left off the sequences shown.

For CDH1 (from UniProt Q9UM11 1-496), the binding result in test [1] and in test [2] was “binds” in each case.

B1: in vitro translated 35S-labelled WT Cyclin F (protein, UniProt P41002 1-786)
chain: MGSGGVVHCRCAKCFCYPTKRRIRRRPRNLTILSLPEDVLFHILKWLSVEDILAVRAVHSQLKDLVDNHASVWACASFQELWPSPGNLKLFERAAEKGNFEAAVKLGIAYLYNEGLSVSDEARAEVNGLKASRFFSLAERLNVGAAPFIWLFIRPPWSVSGSCCKAVVHESLRAECQLQRTHKASILHCLGRVLSLFEDEEKQQQAHDLFEEAAHQGCLTSSYLLWESDRRTDVSDPGRCLHSFRKLRDYAAKGCWEAQLSLAKACANANQLGLEVRASSEIVCQLFQASQAVSKQQVFSVQKGLNDTMRYILIDWLVEVATMKDFTSLCLHLTVECVDRYLRRRLVPRYRLQLLGIACMVICTRFISKEILTIREAVWLTDNTYKYEDLVRMMGEIVSALEGKIRVPTVVDYKEVLLTLVPVELRTQHLCSFLCELSLLHTSLSAYAPARLAAAALLLARLTHGQTQPWTTQLWDLTGFSYEDLIPCVLSLHKKCFHDDAPKDYRQVSLTAVKQRFEDKRYGEISQEEVLSYSQLCAALGVTQDSPDPPTFLSTGEIHAFLSSPSGRRTKRKRENSLQEDRGSFVTTPTAELSSQEETLLGSFLDWSLDCCSGYEGDQESEGEKEGDVTAPSGILDVTVVYLNPEQHCCQESSDEEACPEDKGPQDPQALALDTQIPATPGPKPLVRTSREPGKDVTTSGYSSVSTASPTSSVDGGLGALPQPTSVLSLDSDSHTQPCHHQARKSCLQCRPPSPPESSVPQQQVKRINLCIHSEEEDMNLGLVRL
modifications: 35S-methionine-labelled
Regarding B1, the binding entry in test [3] is recorded as “binds”.

B2: Cyclin F (HEK-293T cells) (protein, UniProt P41002 1-786)
chain: MGSGGVVHCRCAKCFCYPTKRRIRRRPRNLTILSLPEDVLFHILKWLSVEDILAVRAVHSQLKDLVDNHASVWACASFQELWPSPGNLKLFERAAEKGNFEAAVKLGIAYLYNEGLSVSDEARAEVNGLKASRFFSLAERLNVGAAPFIWLFIRPPWSVSGSCCKAVVHESLRAECQLQRTHKASILHCLGRVLSLFEDEEKQQQAHDLFEEAAHQGCLTSSYLLWESDRRTDVSDPGRCLHSFRKLRDYAAKGCWEAQLSLAKACANANQLGLEVRASSEIVCQLFQASQAVSKQQVFSVQKGLNDTMRYILIDWLVEVATMKDFTSLCLHLTVECVDRYLRRRLVPRYRLQLLGIACMVICTRFISKEILTIREAVWLTDNTYKYEDLVRMMGEIVSALEGKIRVPTVVDYKEVLLTLVPVELRTQHLCSFLCELSLLHTSLSAYAPARLAAAALLLARLTHGQTQPWTTQLWDLTGFSYEDLIPCVLSLHKKCFHDDAPKDYRQVSLTAVKQRFEDKRYGEISQEEVLSYSQLCAALGVTQDSPDPPTFLSTGEIHAFLSSPSGRRTKRKRENSLQEDRGSFVTTPTAELSSQEETLLGSFLDWSLDCCSGYEGDQESEGEKEGDVTAPSGILDVTVVYLNPEQHCCQESSDEEACPEDKGPQDPQALALDTQIPATPGPKPLVRTSREPGKDVTTSGYSSVSTASPTSSVDGGLGALPQPTSVLSLDSDSHTQPCHHQARKSCLQCRPPSPPESSVPQQQVKRINLCIHSEEEDMNLGLVRL
For B2, the binding result in test [4] is given as “no binding”; in test [5], “binds”.

B3: CDC6 (endogenous, U2OS cells) (protein, UniProt Q99741 1-560)
chain: MPQTRSQAQATISFPKRKLSRALNKAKNSSDAKLEPTNVQTVTCSPRVKALPLSPRKRLGDDNLCNTPHLPPCSPPKQGKKENGPPHSHTLKGRRLVFDNQLTIKSPSKRELAKVHQNKILSSVRKSQEITTNSEQRCPLKKESACVRLFKQEGTCYQQAKLVLNTAVPDRLPAREREMDVIRNFLREHICGKKAGSLYLSGAPGTGKTACLSRILQDLKKELKGFKTIMLNCMSLRTAQAVFPAIAQEICQEEVSRPAGKDMMRKLEKHMTAEKGPMIVLVLDEMDQLDSKGQDVLYTLFEWPWLSNSHLVLIGIANTLDLTDRILPRLQAREKCKPQLLNFPPYTRNQIVTILQDRLNQVSRDQVLDNAAVQFCARKVSAVSGDVRKALDVCRRAIEIVESDVKSQTILKPLSECKSPSEPLIPKRVGLIHISQVISEVDGNRMTLSQEGAQDSFPLQQKILVCSLMLLIRQLKIKEVTLGKLYEAYSKVCRKQQVAAVDQSECLSLSGLLEARGILGLKRNKETRLTKVFFKIEEKEIEHALKDKALIGNILATGLP
With B3, in test [6], the binding result is given as “binds”.

B4: CDC6 (endogenous, HEK-293T cells) (protein, UniProt Q99741 1-560)
chain: MPQTRSQAQATISFPKRKLSRALNKAKNSSDAKLEPTNVQTVTCSPRVKALPLSPRKRLGDDNLCNTPHLPPCSPPKQGKKENGPPHSHTLKGRRLVFDNQLTIKSPSKRELAKVHQNKILSSVRKSQEITTNSEQRCPLKKESACVRLFKQEGTCYQQAKLVLNTAVPDRLPAREREMDVIRNFLREHICGKKAGSLYLSGAPGTGKTACLSRILQDLKKELKGFKTIMLNCMSLRTAQAVFPAIAQEICQEEVSRPAGKDMMRKLEKHMTAEKGPMIVLVLDEMDQLDSKGQDVLYTLFEWPWLSNSHLVLIGIANTLDLTDRILPRLQAREKCKPQLLNFPPYTRNQIVTILQDRLNQVSRDQVLDNAAVQFCARKVSAVSGDVRKALDVCRRAIEIVESDVKSQTILKPLSECKSPSEPLIPKRVGLIHISQVISEVDGNRMTLSQEGAQDSFPLQQKILVCSLMLLIRQLKIKEVTLGKLYEAYSKVCRKQQVAAVDQSECLSLSGLLEARGILGLKRNKETRLTKVFFKIEEKEIEHALKDKALIGNILATGLP
Turning to B4, the binding entry in test [7] is “binds”.

Source of the values: article PMC4738361.
